In US20250032525A1 (priority 2021, published 2025):
Like-named read-outs stand apart in the source and are kept apart here.

Experiments:
NCI-H322M [1] = settings: NCI-60 database, sulforhodamine B, read-out: Cytotoxic IC50; cited from earlier work
NCI-H522 = settings: NCI-H522, NCI-60 database, sulforhodamine B; read-out: Cytotoxic IC50; cited from earlier work
NCI-H322M [2] = assay: In vitro cytotoxicity (PrestoBlue); format: cell-based; settings: Homo sapiens, 72 h, read-out: Cytotoxic IC50
Description: Experiments were repeated at least 3 times.

SMILES	IC50 (NCI-H322M [1]) [µM]	IC50 (NCI-H522) [µM]	IC50 (NCI-H322M [2]) [µM]
COc1cccc2c1C(=O)c1c(O)c3c(c(O)c1C2=O)C[C@@](O)(C(=O)CO)C[C@@H]3O[C@H]1C[C@H](N)[C@H](O)[C@H](C)O1 [DOX, doxorubicin]	0.453	0.0547	
COc1cccc2c1C(=O)c1c(O)c3c(c(O)c1C2=O)C[C@@](O)(C(C)=O)C[C@@H]3O[C@H]1C[C@H](N)[C@H](O)[C@H](C)O1 [Dau, daunorubicin]	0.288	0.0361	
COc1cccc2c1C(=O)c1c(O)c3c(c(O)c1C2=O)C[C@@](O)(C(C)=O)C[C@@H]3O[C@H]1C[C@H]2[C@H](OC3CCCN32)[C@H](C)O1 (some centres unmarked) [PyDau, 2-deamino-2-pyrrolino-daunorubicin]			0.00785
